For 22 molecules, binding signal results are on record in article PMC12136788.

Sequences and labels used below:
B1: ENSG00000198589:be:win_1251|CDS|ENSG00000198589|bound_else_gene|NA|bound_elsewhere_windowed (ssRNA)
RNA: GGGAGUUCUACAGUCCGACGAUCUGCAUUCACGUACAAUCCACGGGCUACAGAUGCCCAGCUUUGUCUUGAAUCAUCUCCUAAGGACAACCCUUCAAUUUUUGUUCAUUCACCACAUGCACUCAUGCUCCAGGAUGUAAAGGCCAACAGAGGAUUGAGCAUCA
B2: chr9:132262671:132262773:-|3pUTR|ENSG00000107290|unk|FALSE|bound_elsewhere (ssRNA)
RNA: GGGAGUUCUACAGUCCGACGAUCUGUGCAUUAUUUGACAUUUCCUUUGUCAUCUGCUUUUUAAGCAAAAAAGGGUUUUGUGUUAGAAAUUCUACUUGAGCAGAUUAUAAAGAGCUUUAAAAAACAACUUUCGGUUGCCAAAAGCAACAGAGGAUUGAGCAUCA
B3: chr20:32237940:32238012:+|3pUTR|ENSG00000101346|msi1_unk|FALSE|overlapping (ssRNA)
RNA: GGGAGUUCUACAGUCCGACGAUCUUUCAAAGAUACAAAUAUUUACAUAGUUUUAAUCAUGUAAUAUAUACAAUUUAAUGUCCUAGUGUUUUACUUAAUAGUGUAUCAUGUUUUCCCUGUUGGUAUGUAGCCUGGAUAAAUGCUCAACAGAGGAUUGAGCAUCA
B4: ENSG00000070961:be:win_3051|CDS|ENSG00000070961|bound_else_gene|NA|bound_elsewhere_windowed (ssRNA)
RNA: GGGAGUUCUACAGUCCGACGAUCUGUGGUACAGAUAAUAAUUGUGCAGUUUGGUGGAAAACCUUUCAGUUGUUCAGAACUUUCAAUAGAACAGUGGCUAUGGUCAAUAUUCCUAGGAAUGGGAACAUUACUCUGGGGCCAGCUCAACAGAGGAUUGAGCAUCA
B5: chr12:88493871:88493972:-|3pUTR|ENSG00000049130|msi1|total|mutant (ssRNA)
RNA: GGGAGUUCUACAGUCCGACGAUCAAGUAUCUUGACCAUAAAAAGUCAUUGCUGUUCUUGUUUCUAAUGUAAACCGUGUCCAUCCGUAAAAGUGAAAUUCAGUCUUAAGCCGGGUGAAUUGGAUCACCAUUUACACAAGAGAUGCAACAGAGGAUUGAGCAUCA
B6: chr1:71064632:71064733:-|3pUTR|ENSG00000132485|msi1|FALSE|bound_elsewhere (ssRNA)
RNA: GGGAGUUCUACAGUCCGACGAUCGCUAAGACAGGAUUACCUAGGCUUGCCUGAACUUUGGGCAUGGAAGAAAGACUGGAAACUAGUUGGAAACAACAUACUUAUGGAAAAGAAAGUCAGCCUUUUUAUGCUGUUAACAGAUGUCAACAGAGGAUUGAGCAUCA
B7: chrX:115010634:115010735:-|CDS|ENSG00000123496|msi1|FALSE|unique (ssRNA)
RNA: GGGAGUUCUACAGUCCGACGAUCUGGAUCAUCAGAGAACAAGCCUAUCAGAUCCAGUUAUUUCACUUUUCAGCUUCAAAAUAUAGGUGAUGUAAACCAACAAACAACUUCAAAUUCAUUGUUUCUAGUUUAGGCCAUUUACAACAACAGAGGAUUGAGCAUCA
B8: chr10:119072878:119073036:-|CDS|ENSG00000107581|unk|FALSE|unique (ssRNA)
RNA: GGGAGUUCUACAGUCCGACGAUCCUUUUAACUCCAUGGGUUAAAUUCCUGUGGGAGUCUUACAGGCAGUGUUUGGACCUUCUUAGAAACAAUUCUAGAGUAGAGCGCCUGUACCAUGAUAUUGCCCAGCAAGGUAAGAUGAGACAACAGAGGAUUGAGCAUCA
B9: ENSG00000136451:be:win_3951|3pUTR|ENSG00000136451|bound_else_gene|NA|bound_elsewhere_windowed (ssRNA)
RNA: GGGAGUUCUACAGUCCGACGAUCGUAUGCAUUCUUUAUUCACUUAAGAAGCUUGUCUGCAAUAAUAAAGCCACGUCAUGUCUUCUUUUGGGAGGGAGAGAGUCGAUGGCAGGAGGGGGUUUUGGGUGGGCCACUGAAAAGGGGCAACAGAGGAUUGAGCAUCA
B10: chr18:722677:722778:-|3pUTR|ENSG00000176105|msi1|FALSE|unique (ssRNA)
RNA: GGGAGUUCUACAGUCCGACGAUCCCGCGCCCAGCCUACAUUCACUUCUAAAGUCUAUGUAAUGGUGGUCAUUUUUUCCCUUUUAGAAUACAUUAAAUGGUUGAUUUGGGGAGGAAAACUUAUUCUGAAUAUUAACGGUGGUGACAACAGAGGAUUGAGCAUCA
B11: ENSG00000070961:be:win_1551|CDS|ENSG00000070961|bound_else_gene|NA|bound_elsewhere_windowed (ssRNA)
RNA: GGGAGUUCUACAGUCCGACGAUCAAUUUCUGUGAAUUGUGCUUAUACAUCAAAAAUAUUGCCACCAGAGAAAGAGGGUGGAUUACCUCGUCACGUUGGUAAUAAAACUGAAUGUGCCUUGUUGGGACUUCUUUUGGAUUUAAACAACAGAGGAUUGAGCAUCA
B12: chr10:95311796:95311897:-|3pUTR|ENSG00000095637|unk|FALSE|unique (ssRNA)
RNA: GGGAGUUCUACAGUCCGACGAUCCAGACAUAGAUUUUUCUGUUCAUUUAUUUUUCUUCAUUGCAGUGGAUUGAUUUGAUAAAUAGAUGUGUUGAAUUACUACAUUUGCUGUACAUAUUAUUUAAUAAACUUUAUUCAGAAUUGCAACAGAGGAUUGAGCAUCA
B13: chr19:12791443:12791544:+|5pUTR|ENSG00000171223|unk|total|mutant (ssRNA)
RNA: GGGAGUUCUACAGUCCGACGAUCGGGGGGCGCGGGGGCCCGGCUCCGGCGACGGCCAAUCGGAGCGCACUUCCGUGGCUGACCCGCGCGGUAUAAAGGCGUGUGGCUCAGGCUGAGCGGCUGGGACCUUGAGAGCGGCCAGGCCAACAGAGGAUUGAGCAUCA
B14: chr1:94897714:94897775:-|CDS_3pUTR|ENSG00000117519|msi1_unk|total|mutant (ssRNA)
RNA: GGGAGUUCUACAGUCCGACGAUCGCGAGUACCAGGAUGACUACCCCAGAGAUUACCAAUACCGCGACCAAGGCAUUGAUUAUCCGAUCCACACAGAAGGAGCUCAGUAUUCCGUCCUUUGUUUUUAUUCAGUGAGAACCAAGCCAACAGAGGAUUGAGCAUCA
B15: chr2:32224452:32224765:-|three_prime_utr|ENSG00000091106|control|control|control (ssRNA)
RNA: GGGAGUUCUACAGUCCGACGAUCUCGUGUGAGCAGUGAUGGAUGGCUUGCCUUCAUGGGUGUAUUUGAGAAUCUUAAGCAAUUAGUGUUUUUUGACUUUAGUACUAAAGAAUUUCUACCUGAUCCAGCAUUAGUCAGAAAACUCAACAGAGGAUUGAGCAUCA
B16: chr15:40213340:40213445:+|CDS|ENSG00000156970|unk|total|mutant (ssRNA)
RNA: GGGAGUUCUACAGUCCGACGAUCACACAGUGAAUAUAUUACCCAUGAAAUAACAGUGUUGAUUAUUUAUAACCUUUUGACAACCGUGGAGAUGCUACACAAAGCAGAAACCGUCCAUGGUGACUUGAGUCCAAGGUGUCUGAUCAACAGAGGAUUGAGCAUCA
B17: chr13:73693106:73693207:-|3pUTR|ENSG00000118922|msi1|total|mutant (ssRNA)
RNA: GGGAGUUCUACAGUCCGACGAUCCAGAGAACACAGAGAGGGACAAACACAGCCAUGAACCCCCUGGCACCCGUACCAGCACCCCGUUGGCAAGCCGUGGGUGCAUCUCUCAAGUGAAGUGCCGAUUUGUAUUCCGUCCUGCUUCAACAGAGGAUUGAGCAUCA
B18: chr1:67426168:67426278:-|CDS|ENSG00000142864|unk|total|mutant (ssRNA)
RNA: GGGAGUUCUACAGUCCGACGAUCAUAAGACGAGUUGGAAGAAGACCUGAUCAACAACUUCAGGGUGAAGGGAAAAUAAUUGACCGAAGACCAGAAAGGCGACCACCUCGUGAACGAAGAUUCGAAAAGCCACUUGAAGAAAAGCAACAGAGGAUUGAGCAUCA
B19: chr12:285015:285116:-|3pUTR|ENSG00000073614|msi1|FALSE|bound_elsewhere (ssRNA)
RNA: GGGAGUUCUACAGUCCGACGAUCUAACAGGGCAUAUAGGAUGUGGCUUUUGUCCAGCUGAUAGUAGUUAGAGGCUUACAACUUAGGAGCAGCACCAACUGAAGGUGCUAAUUGCUUGGAUCUCCUUCAUUGGGAUAGUUGGAGCAACAGAGGAUUGAGCAUCA
B20: chr11:101473508:101473773:-|CDS|ENSG00000137672|control|control|control (ssRNA)
RNA: GGGAGUUCUACAGUCCGACGAUCUCCUCAAAUAAUAUCUGAAGGUCUUUAUGCAAUUGCUGUAGUUUUAAGUUUCUCUAGGAUAGCUUAUAUUUUACCAGCAAAUGAAAGCUUUGGACCUCUGCAGAUAUCACUUGGAAGAACCAACAGAGGAUUGAGCAUCA
B21: chr15:41480918:41481019:+|3pUTR|ENSG00000137815|msi1|total|mutant (ssRNA)
RNA: GGGAGUUCUACAGUCCGACGAUCCCUCCCCCAGGGCCCCACCCAGUGUGGGCCUGGGCUCUCUUGGGCUUUAUCCAUGUCUUCCGAUUUGUGUUUGCCUUUUGUUUUUUUAACCGCGCAGUUCAUUGGCCACUCUGCACGCAUCAACAGAGGAUUGAGCAUCA
B22: chr7:40094668:40094770:+|CDS|ENSG00000065883|unk|FALSE|unique (ssRNA)
RNA: GGGAGUUCUACAGUCCGACGAUCGGAUAUGGAGACAUUUACCUCAAUGCUGGUCCCAUGUUGUUUAGUGGAGACAAGGACCAUAGAUUUGAAUAUAGCCAUGGUCCUAUUGCAGUCCUGGCAAACAGCAGUGACCCUUCCACGCAACAGAGGAUUGAGCAUCA

The list shows a part of the results.

In this assay the target is MSI1 full-length (mouse, UniProt Q61474 1-362). Kind of assay: nsRBNS (natural sequence RNA bind-n-seq); RBNS binding buffer (assumed for nsRBNS): 25 mM Tris pH 7.5, 150 mM KCl, 3 mM MgCl2, 0.01% Triton X-100, 500 ug/ml BSA, 20 U/ml SUPERase-In, 4 C; UNK is unkempt and MSI1 is Musashi-1; names of the RNAs are library labels; protein concentration not given here; high values mean tight binding.
Chain of UniProt Q61474 (Q61474 whole entry): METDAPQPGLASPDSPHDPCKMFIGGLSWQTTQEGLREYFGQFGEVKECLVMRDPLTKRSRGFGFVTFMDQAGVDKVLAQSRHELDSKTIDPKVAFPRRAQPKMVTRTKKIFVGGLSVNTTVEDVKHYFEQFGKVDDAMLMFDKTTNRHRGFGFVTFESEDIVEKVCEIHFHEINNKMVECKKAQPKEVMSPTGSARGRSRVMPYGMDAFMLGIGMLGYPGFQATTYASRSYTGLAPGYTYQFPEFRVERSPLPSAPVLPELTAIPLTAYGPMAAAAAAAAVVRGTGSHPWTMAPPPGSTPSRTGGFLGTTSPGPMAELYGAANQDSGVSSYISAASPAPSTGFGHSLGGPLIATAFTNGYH
In the case of B1, the binding signal was 0.289 enrichment R.
B2 returned a binding signal of 0.299 enrichment R.
With B3 the figure was 9.08 enrichment R.
Turning to B4, the binding signal amounted to 0.456 enrichment R.
With B5 the figure was 0.197 enrichment R.
Molecule B6 showed a binding signal of 0.361 enrichment R.
With B7 the figure was 1.74 enrichment R; with B8, 0.658 enrichment R.
Molecule B9 had a binding signal of 0.539 enrichment R.
Turning to B10, the binding signal is 0.754 enrichment R.
Turning to B11, the binding signal was 0.238 enrichment R.
With B12 the figure was 2.8 enrichment R.
To B13 belongs 0.352 enrichment R; to B14, 0.422 enrichment R; to B15, 3.3 enrichment R.
To B16 belongs 0.521 enrichment R; to B17, 0.572 enrichment R; to B18, 0.388 enrichment R.
In turn, B19 gave a binding signal of 2.16 enrichment R.
With B20 the figure was 1.39 enrichment R; with B21, 0.476 enrichment R; with B22, 0.583 enrichment R.
